Measured values: patent US6660767B2, “Coumarin compounds as microtubule stabilizing agents and therapeutic uses thereof” (The Regents of the University of California, priority 2001, dated 2003)

System: microtubule plus ends
Assay: Steady-state dynamic instability of individual microtubules by DIC video microscopy
Type: biochemical, bovine
Settings: plus ends at steady state
Description: Analysis of dynamic instability behavior of individual microtubules at steady state was conducted with real-time DIC video microscopy as described by Walker et al. (1988) J. Cell Biol. 107:1437-1448 and Panda et al. (1995) Biochem 34:9921-9929, both of which are herein incorporated by reference. A Hamamatsu C2400 Newvicon video camera was used to capture the images of microtubules which were enhanced with a Hamamatsu DVS3000 digital image processor. Analysis of length changes was performed using a video analysis software program designed by N. Gliksman at the University of North Carolina.
Microtubules were grown at the ends of sea urchin flagellar axonemal fragments (seeds) to distinguish the plus and minus ends. The microtubules were allowed to achieve polymer-mass steady state which took less than about 30 minutes, and analysis of the steady-state dynamics was carried out for about 30 minutes to about 45 minutes without deterioration of the microtubules or any detectable changes in dynamics. The individual dynamic instability parameters were analyzed quantitatively. These included the rates of growing and shortening, the lengths of time microtubules grow and shorten, the mean lengths of each growing or shortening event, the transition frequencies from the growing or attenuated state to shortening or from shortening to the growing or attenuated or paused state, the percentage of total time the microtubules spend growing, shortening, or in the attenuated state, and the overall dynamicity, the combined total observable growing and shortening per unit time. See Kowalski, R. J. et al. (1993) 26(4):282-290, which is herein incorporated by reference.
Tubulin pellets were thawed and centrifuged at 4° C. to remove any aggregated or denatured tubulin. The purified tubulin was mixed with axoneme seeds and polymerized in PMME buffer (87 mM PIPES, 36 mM MES, 1.4 mM MgCl2, 1 mM EGTA, pH 6.8) comprising 1 mM GTP in the presence or absence of coumarin compounds. […].
After 35 minutes of incubation, samples of microtubule suspensions (2.5 μl and 2.0 μl) were prepared for video microscopy, and the dynamics of individual microtubules were recorded at 37° C. as described previously (Panda et al. (1995) Biochem. 34:9921-9929, which is herein incorporated by reference).
The microtubule was determined to be in a growing phase if the microtubule increased in length by >0.2 μM at a rate >0.15 μm/min and in a shortening phase if the microtubule shortened in length by >0.2 μM at a rate >0.3 μm/min. Length changes equal to or less than 0.2 μm over the duration of six data points were considered as attenuation phases. The same tubulin preparation for all experiments was used and for preliminary experiments, an average of about 10 to about 15 microtubules was measured for each experimental condition, and for the results provided in Table 1, about 20 to about 30 microtubules were analyzed for each experimental condition.
The catastrophe frequency (transition from the growing or attenuated state to shortening) was calculated by dividing the number of catastrophes by the sum of the total time spent in the growing plus attenuated states for all microtubules for a particular condition. The rescue frequency (transition from shortening to growing or attenuation, excluding new growth from a seed) was calculated by dividing the total number of rescue events by the total time spent shortening for all microtubules for a particular condition. Control microtubules alternated between phases of growing and shortening, but also spent a small percentage of time in an attenuated state.

## O=c1oc2ccccc2c(O)c1Cc1c(O)c2ccccc2oc1=O [dicoumarol]
Dicoumarol 0.04 μM
  Mean Duration Growing: 1.30 ± 0.18 min
  Mean Length Shortening: 2.00 ± 0.53 μm/event
Dicoumarol 0.1 μM
  Mean Duration Growing: 1.50 ± 0.29 min
  Mean Length Shortening: 1.90 ± 0.43 μm/event
Dicoumarol 1.0 μM
  Mean Duration Growing: 1.70 ± 0.30 min
  Mean Length Shortening: 1.40 ± 0.44 μm/event
Dicoumarol 10.0 μM
  Mean Duration Growing: 1.70 ± 0.38 min
  Mean Length Shortening: 1.60 ± 0.37 μm/event
Dicoumarol 50.0 μM
  Mean Duration Growing: 2.36 ± 0.34 min
  Mean Length Shortening: 1.40 ± 0.21 μm/event
